Among the data in patent US20140271458A1 (AbbVie / Abbott, published 2014) are C-Terminal VD IL17 Neutralization Assay (IC50 nM) and N-Terminal VD IL-1β Neutralization Assay (IC50 nM) values, retold here.

One test addresses T1, Recombinant Human IL-17 (human, UniProt Q16552 20-155, limits assumed).
T1 sequence (looked up): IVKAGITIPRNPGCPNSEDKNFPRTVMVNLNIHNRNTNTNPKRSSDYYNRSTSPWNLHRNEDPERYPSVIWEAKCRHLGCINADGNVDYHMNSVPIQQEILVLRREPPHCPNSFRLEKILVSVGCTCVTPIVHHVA
The test can be described thus: cell-based or functional assay.

The target in a further test is Recombinant Human IL-1b (human, UniProt P01584 117-269). Briefly: cell-based or functional assay.
Chain of UniProt P01584 (P01584 117-269 limits assumed): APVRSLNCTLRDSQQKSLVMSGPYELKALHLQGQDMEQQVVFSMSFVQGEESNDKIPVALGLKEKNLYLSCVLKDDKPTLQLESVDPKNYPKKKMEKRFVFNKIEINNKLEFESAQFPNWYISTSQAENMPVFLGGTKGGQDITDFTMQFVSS

B1: DVD2431 (bispecific antibody, human IgG1)
heavy: EVQLQESGPGLVKPSETLSLTCTVSGFSLSDYGVSWIRQPPGKGLEWLGLIWGGGDTYYNSPLKSRLTISKDNSKSQVSLKLSSVTAADTAVYYCAKQRTLWGYDLYGMDYWGQGTLVTVSSASTKGPEVQLVQSGAEVKKPGSSVKVSCKASGGSFGGYGIGWVRQAPGQGLEWMGGITPFFGFADYAQKFQGRVTITADESTTTAYMELSGLTSDDTAVYYCARDPNEFWGGYYSTHDFDSWGQGTTVTVSS[human IgG1 constant region left out]
light: DTQVTQSPSSLSASVGDRVTITCITSTDIDVDMNWYQQKPGKPPKLLISQGNTLRPGVPSRFSSSGSGTDFTFTISSLQPEDFATYYCLQSDNLPLTFGQGTKLEIKRTVAAPEIVLTQSPDFQSVTPKEKVTITCRASQDIGSELHWYQQKPDQPPKLLIKYASHSTSGVPSRFSGSGSGTDFTLTINGLEAEDAGTYYCHQTDSLPYTFGPGTKVDIKRTVAAPSVFIFPPSDEQLKSGTASVVCLLNNFYPREAKVQWKVDNALQSGNSQESVTEQDSKDSTYSLSSTLTLSKADYEKHKVYACEVTHQGLSSPVTKSFNRGEC
For the molecule B1, the C-Terminal VD IL17 Neutralization Assay (IC50 nM) with Recombinant Human IL-17 is 0.805 nM. The N-Terminal VD IL-1β Neutralization Assay (IC50 nM) with Recombinant Human IL-1b was found to be 0.168 nM.

B2: DVD2432 (bispecific antibody, human IgG1)
heavy: EVQLQESGPGLVKPSETLSLTCTVSGFSLSDYGVSWIRQPPGKGLEWLGLIWGGGDTYYNSPLKSRLTISKDNSKSQVSLKLSSVTAADTAVYYCAKQRTLWGYDLYGMDYWGQGTLVTVSSASTKGPEVQLVQSGAEVKKPGSSVKVSCKASGGSFGGYGIGWVRQAPGQGLEWMGGITPFFGFADYAQKFQGRVTITADESTTTAYMELSGLTSDDTAVYYCARDPNEFWGGYYSTHDFDSWGQGTTVTVSS[human IgG1 constant region left out]
light: DTQVTQSPSSLSASVGDRVTITCITSTDIDVDMNWYQQKPGKPPKLLISQGNTLRPGVPSRFSSSGSGTDFTFTISSLQPEDFATYYCLQSDNLPLTFGQGTKLEIKRTVAAPSVFIFPPEIVLTQSPDFQSVTPKEKVTITCRASQDIGSELHWYQQKPDQPPKLLIKYASHSTSGVPSRFSGSGSGTDFTLTINGLEAEDAGTYYCHQTDSLPYTFGPGTKVDIKRTVAAPSVFIFPPSDEQLKSGTASVVCLLNNFYPREAKVQWKVDNALQSGNSQESVTEQDSKDSTYSLSSTLTLSKADYEKHKVYACEVTHQGLSSPVTKSFNRGEC
In the case of B2, the C-Terminal VD IL17 Neutralization Assay (IC50 nM) in the test with Recombinant Human IL-17 came to 0.079 nM. Further, in the test with Recombinant Human IL-1b, the N-Terminal VD IL-1β Neutralization Assay (IC50 nM) worked out at 0.194 nM.

B3: DVD2430 (bispecific antibody, human IgG1)
heavy: EVQLVESGGGVVQPGRSLRLSCSASGFIFSRYDMSWVRQAPGKGLEWVAYISHGGAGTYYPDSVKGRFTISRDNSKNTLFLQMDSLRAEDTAVYYCARGGVYKGYFDVWGQGTPVTVSSASTKGPSVFPLAPEVQLVQSGAEVKKPGSSVKVSCKASGGSFGGYGIGWVRQAPGQGLEWMGGITPFFGFADYAQKFQGRVTITADESTTTAYMELSGLTSDDTAVYYCARDPNEFWGGYYSTHDFDSWGQGTTVTVSS[human IgG1 constant region left out]
light: DIQMTQSPSSLSASVGDRVTITCRASGNIHNYLTWYQQTPGKAPKLLIYNAKTLADGVPSRFSGSGSGTDYTFTISSLQPEDIATYYCQHFWSIPYTFGQGTKLQITRTVAAPSVFIFPPEIVLTQSPDFQSVTPKEKVTITCRASQDIGSELHWYQQKPDQPPKLLIKYASHSTSGVPSRFSGSGSGTDFTLTINGLEAEDAGTYYCHQTDSLPYTFGPGTKVDIKRTVAAPSVFIFPPSDEQLKSGTASVVCLLNNFYPREAKVQWKVDNALQSGNSQESVTEQDSKDSTYSLSSTLTLSKADYEKHKVYACEVTHQGLSSPVTKSFNRGEC
On to B3, for which, in the test with Recombinant Human IL-17, the C-Terminal VD IL17 Neutralization Assay (IC50 nM) came to 0.058 nM.

B4: DVD2427 (bispecific antibody, human IgG1)
heavy: EVQLVESGGGVVQPGRSLRLSCSASGFIFSRYDMSWVRQAPGKGLEWVAYISHGGAGTYYPDSVKGRFTISRDNSKNTLFLQMDSLRAEDTAVYYCARGGVYKGYFDVWGQGTPVTVSSASTKGPEVQLVQSGAEVKKPGSSVKVSCKASGGSFGGYGIGWVRQAPGQGLEWMGGITPFFGFADYAQKFQGRVTITADESTTTAYMELSGLTSDDTAVYYCARDPNEFWGGYYSTHDFDSWGQGTTVTVSS[human IgG1 constant region left out]
light: DIQMTQSPSSLSASVGDRVTITCRASGNIHNYLTWYQQTPGKAPKLLIYNAKTLADGVPSRFSGSGSGTDYTFTISSLQPEDIATYYCQHFWSIPYTFGQGTKLQITRTVAAPEIVLTQSPDFQSVTPKEKVTITCRASQDIGSELHWYQQKPDQPPKLLIKYASHSTSGVPSRFSGSGSGTDFTLTINGLEAEDAGTYYCHQTDSLPYTFGPGTKVDIKRTVAAPSVFIFPPSDEQLKSGTASVVCLLNNFYPREAKVQWKVDNALQSGNSQESVTEQDSKDSTYSLSSTLTLSKADYEKHKVYACEVTHQGLSSPVTKSFNRGEC
With B4, the C-Terminal VD IL17 Neutralization Assay (IC50 nM) in the test with Recombinant Human IL-17 was 0.771 nM. In addition, in the test with Recombinant Human IL-1b, the N-Terminal VD IL-1β Neutralization Assay (IC50 nM) amounted to 0.0003 nM.

B5: DVD2428 (bispecific antibody, human IgG1)
heavy: EVQLVESGGGVVQPGRSLRLSCSASGFIFSRYDMSWVRQAPGKGLEWVAYISHGGAGTYYPDSVKGRFTISRDNSKNTLFLQMDSLRAEDTAVYYCARGGVYKGYFDVWGQGTPVTVSSASTKGPEVQLVQSGAEVKKPGSSVKVSCKASGGSFGGYGIGWVRQAPGQGLEWMGGITPFFGFADYAQKFQGRVTITADESTTTAYMELSGLTSDDTAVYYCARDPNEFWGGYYSTHDFDSWGQGTTVTVSS[human IgG1 constant region left out]
light: DIQMTQSPSSLSASVGDRVTITCRASGNIHNYLTWYQQTPGKAPKLLIYNAKTLADGVPSRFSGSGSGTDYTFTISSLQPEDIATYYCQHFWSIPYTFGQGTKLQITRTVAAPSVFIFPPEIVLTQSPDFQSVTPKEKVTITCRASQDIGSELHWYQQKPDQPPKLLIKYASHSTSGVPSRFSGSGSGTDFTLTINGLEAEDAGTYYCHQTDSLPYTFGPGTKVDIKRTVAAPSVFIFPPSDEQLKSGTASVVCLLNNFYPREAKVQWKVDNALQSGNSQESVTEQDSKDSTYSLSSTLTLSKADYEKHKVYACEVTHQGLSSPVTKSFNRGEC
As for B5, the C-Terminal VD IL17 Neutralization Assay (IC50 nM) in the test with Recombinant Human IL-17 stood at 0.065 nM. In addition, the N-Terminal VD IL-1β Neutralization Assay (IC50 nM) with Recombinant Human IL-1b turned out to be 0.0007 nM.

B6: DVD2424 (bispecific antibody, human IgG1)
heavy: EVQLVESGGGVVQPGRSLRLSCSASGFIFSRYDMSWVRQAPGKGLEWVAYISHGGAGTYYPDSVKGRFTISRDNSKNTLFLQMDSLRPEDTGVYFCARGGVTKGYFDVWGQGTPVTVSSASTKGPEVQLVQSGAEVKKPGSSVKVSCKASGGSFGGYGIGWVRQAPGQGLEWMGGITPFFGFADYAQKFQGRVTITADESTTTAYMELSGLTSDDTAVYYCARDPNEFWGGYYSTHDFDSWGQGTTVTVSS[human IgG1 constant region left out]
light: DIQMTQSPSSLSASVGDRVTITCRASGNIHNYLTWYQQTPGKAPKLLIYNAKTLADGVPSRFSGSGSGTDYTFTISSLQPEDIATYYCQHFWSIPYTFGQGTKLQITRTVAAPSVFIFPPEIVLTQSPDFQSVTPKEKVTITCRASQDIGSELHWYQQKPDQPPKLLIKYASHSTSGVPSRFSGSGSGTDFTLTINGLEAEDAGTYYCHQTDSLPYTFGPGTKVDIKRTVAAPSVFIFPPSDEQLKSGTASVVCLLNNFYPREAKVQWKVDNALQSGNSQESVTEQDSKDSTYSLSSTLTLSKADYEKHKVYACEVTHQGLSSPVTKSFNRGEC
As to B6, the C-Terminal VD IL17 Neutralization Assay (IC50 nM) in the test with Recombinant Human IL-17 came out at 0.077 nM.

B7: DVD2423 (bispecific antibody, human IgG1)
heavy: EVQLVESGGGVVQPGRSLRLSCSASGFIFSRYDMSWVRQAPGKGLEWVAYISHGGAGTYYPDSVKGRFTISRDNSKNTLFLQMDSLRPEDTGVYFCARGGVTKGYFDVWGQGTPVTVSSASTKGPEVQLVQSGAEVKKPGSSVKVSCKASGGSFGGYGIGWVRQAPGQGLEWMGGITPFFGFADYAQKFQGRVTITADESTTTAYMELSGLTSDDTAVYYCARDPNEFWGGYYSTHDFDSWGQGTTVTVSS[human IgG1 constant region left out]
light: DIQMTQSPSSLSASVGDRVTITCRASGNIHNYLTWYQQTPGKAPKLLIYNAKTLADGVPSRFSGSGSGTDYTFTISSLQPEDIATYYCQHFWSIPYTFGQGTKLQITRTVAAPEIVLTQSPDFQSVTPKEKVTITCRASQDIGSELHWYQQKPDQPPKLLIKYASHSTSGVPSRFSGSGSGTDFTLTINGLEAEDAGTYYCHQTDSLPYTFGPGTKVDIKRTVAAPSVFIFPPSDEQLKSGTASVVCLLNNFYPREAKVQWKVDNALQSGNSQESVTEQDSKDSTYSLSSTLTLSKADYEKHKVYACEVTHQGLSSPVTKSFNRGEC
On to B7, for which, in the test with Recombinant Human IL-17, the C-Terminal VD IL17 Neutralization Assay (IC50 nM) came to 1.09 nM.

B8: DVD2429 (bispecific antibody, human IgG1)
heavy: EVQLVESGGGVVQPGRSLRLSCSASGFIFSRYDMSWVRQAPGKGLEWVAYISHGGAGTYYPDSVKGRFTISRDNSKNTLFLQMDSLRAEDTAVYYCARGGVYKGYFDVWGQGTPVTVSSASTKGPSVFPLAPEVQLVQSGAEVKKPGSSVKVSCKASGGSFGGYGIGWVRQAPGQGLEWMGGITPFFGFADYAQKFQGRVTITADESTTTAYMELSGLTSDDTAVYYCARDPNEFWGGYYSTHDFDSWGQGTTVTVSS[human IgG1 constant region left out]
light: DIQMTQSPSSLSASVGDRVTITCRASGNIHNYLTWYQQTPGKAPKLLIYNAKTLADGVPSRFSGSGSGTDYTFTISSLQPEDIATYYCQHFWSIPYTFGQGTKLQITRTVAAPEIVLTQSPDFQSVTPKEKVTITCRASQDIGSELHWYQQKPDQPPKLLIKYASHSTSGVPSRFSGSGSGTDFTLTINGLEAEDAGTYYCHQTDSLPYTFGPGTKVDIKRTVAAPSVFIFPPSDEQLKSGTASVVCLLNNFYPREAKVQWKVDNALQSGNSQESVTEQDSKDSTYSLSSTLTLSKADYEKHKVYACEVTHQGLSSPVTKSFNRGEC
Take B8: the C-Terminal VD IL17 Neutralization Assay (IC50 nM) with Recombinant Human IL-17 was 0.305 nM. For the same molecule, the N-Terminal VD IL-1β Neutralization Assay (IC50 nM) with Recombinant Human IL-1b was 0.0009 nM.
